Binding signal (log2 normalized intensity) data for 73 sequences are collected here from PMC10726135.

Some of the results follow. At the low end of the ranking the order means little. Measured with an extract: partners may take part in the binding.

The test has as its target T1, HNF4alpha2 (COS-7 nuclear extract) (UniProt P41235).
T1 sequence: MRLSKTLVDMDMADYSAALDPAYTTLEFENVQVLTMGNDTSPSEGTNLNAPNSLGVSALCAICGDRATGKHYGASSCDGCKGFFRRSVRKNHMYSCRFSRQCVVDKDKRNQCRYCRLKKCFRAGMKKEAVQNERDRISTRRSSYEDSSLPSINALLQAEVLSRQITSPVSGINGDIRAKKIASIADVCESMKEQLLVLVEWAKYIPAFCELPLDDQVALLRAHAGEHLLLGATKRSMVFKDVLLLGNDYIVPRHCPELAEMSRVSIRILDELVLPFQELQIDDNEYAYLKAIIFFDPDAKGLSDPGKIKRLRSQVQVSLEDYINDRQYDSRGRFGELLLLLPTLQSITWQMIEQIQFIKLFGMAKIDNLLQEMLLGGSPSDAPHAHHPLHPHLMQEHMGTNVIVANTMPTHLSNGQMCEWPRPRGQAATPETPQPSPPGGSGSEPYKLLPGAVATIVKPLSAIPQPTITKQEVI
The test can be described thus: protein-binding microarray. The settings on record: COS-7 nuclear extract on double-stranded Agilent 4x180k PBM; binding buffer, salt, pH and temperature not given; high values mean tight binding; double strand, one strand shown; sequences stand for … in …GCCTAGGGAGATTAGAGTATCGGTCGA
Consider AACAAACTTTGCTGTGTCCCACAGGGAAAG, for which the binding signal (log2 normalized intensity) is -0.81.
With AACATCTTTGGTATGGACTGATATTCAAAC, the binding signal (log2 normalized intensity) worked out at 0.994.
Regarding CACACCACACTCTCCTCCTGGCCTCCACTC, the binding signal (log2 normalized intensity) is -1.26.
GGAGTTGGAACGGGGGCAAGGGTCAGAGTA: the binding signal (log2 normalized intensity) was 4.26.
Take GGAAGGTGCCAAGCATTCTAATCATTGAGG: the binding signal (log2 normalized intensity) was -1.08.
For CCCACTCTTAGCAGAGATTCCTGCTGAGTT the value was -1.15.
For ATCCTTATCTTGTAGAAAAGTGCATGGATT the value was 0.836; for TTTGCTTAGTCTTATCTGAGGTGCCCTTAC, 2.67.
For GGTCACAGTAACAGGGAGTCTGTTGCAAGC, the binding signal (log2 normalized intensity) was -1.11.
Next, ACCATCTCCTTTTGTGAGAGGTCAATGTCC: 6.22; CTCCTGCCCTACTCCCTTAAATAATGCATA: 1.27; CCAACTCCCCTCCCAAGGCAGCAATCCCCT: 4.97.
With AACAGCAGCCACATTCCATGAGCTGGCCTC, the binding signal (log2 normalized intensity) is -1.16.
Next, GGGTCAGAGAAACCTGGCTGCGAGTCCCTG: -1.13.
In the case of CCCAGTCCAAATTCCCTTCCCCTCCTTAGG, the binding signal (log2 normalized intensity) stood at 2.5.
On to GGTCAATAGTCCAGATACAGATGGCTAGAA, for which the binding signal (log2 normalized intensity) was -1.11.
Next, TCTCTAAGATAAGGATAATCTTCACTTGCC: -0.954; GAATCACTCACTGACCTCTTTTGGATTTTT: 1.73; GCTCTCCTCCTAATCACTGCCCTTTGGTGC: 2.83.
TTGGCCTATGGGAAAACAGGCTCAGCAAAG: the binding signal (log2 normalized intensity) is -1.08.
As for GCTGCTTCCCAGTTGCTCTGGAGTGCAGGT, the binding signal (log2 normalized intensity) is -0.82.
For CCCTCAGTACAGGGCGTCCTTGATAAGCAA the value was -0.94; for GACAAAGGGCTCTCTCACCAGAAAAATGTA, -1.19.
For TTAGTGTGCTCTGGGTCTGTCCTTTGTGTT the value was 2.67; for TTCCTCTCCTGCCCTACTCCCTTAAATAAT, 2.49; for ATATTTGCTCTTATTGATTGCCTTTCATGT, 1.47.
Next, TCTGATGTCTGCTGAGAGATTCCTCTGCAC: -1.06.
Consider TCTAACATTTTTGACCTTCAGCATCTTCAA, for which the binding signal (log2 normalized intensity) worked out at 2.85.
For GGGTGATAAGAACACAAAAGCCTCTTCAGG the value was -1.24.
On to CCCAGGGTTAGAGGATGACCTTCCCTGCAG, for which the binding signal (log2 normalized intensity) is 1.33.
As for GGCTGTGCATATTGGTTTACAGCACTTCAT, the binding signal (log2 normalized intensity) worked out at 0.595.
Next, TTTGTCAAATGCTTCCAAGAATTTAAGAGA: -0.179; ATCACGTCTCTCTGGGGCCCTCTTCTGCAT: -0.843.
As to CCCTCCCCTCCCCCCACTCAAAATAGGAGT, the binding signal (log2 normalized intensity) came to 4.52.
In the case of TCTCATGCCCTTTGCCTCCCTGCATTCCAT, the binding signal (log2 normalized intensity) stood at 3.
Next, CAGCCCTGCTCCCCGCCTTGGCCTCCCGGA: 2.88; CCAGGATCCAGTCCTCACCCAGAACTTTGA: 2.27.
For the sequence GGGAGTAAAGGTCACGCAGGCCACCTGGTG, the binding signal (log2 normalized intensity) was found to be 3.36.
Next, TGGATTGCCTCCTAAGGCCTCCAGAAGGAA: -1.11.
For GCACAGTCAAAAATTTGTGTGTAACATTTG the value was 1.17; for AGATGATAGTGATAAGGATCTAAGAACTAA, -1.12.
As to TACGGACCATGGATCGCCAACCTTGGGTCT, the binding signal (log2 normalized intensity) was -1.06.
As to TGCCTTTGATCAGGGACCTTTGTTCCTTTA, the binding signal (log2 normalized intensity) stood at 4.43.
Consider TTATCTTACATGCCTTATCTGGTTCAAAGG, for which the binding signal (log2 normalized intensity) was determined as 2.9.
For ACCCCACGGACTTAAATTGTGCTGTGTCAG the value was 1.49.
On to TGGTTTTCCAATCTGGTGAAAGATGATGAG, for which the binding signal (log2 normalized intensity) came to 1.17.
As for ACCTAGGTAGTGGACTCTAAGGCAAAACAC, the binding signal (log2 normalized intensity) worked out at 1.38.
With GCATTCCTGAAGCCTTCCTTAATCCTTCAG, the binding signal (log2 normalized intensity) is -0.828.
Next, TTGGCACTTCTCTCGGCCTTAAGAGTCAAA: -1.07.
Next, TTCTTCCTGTTTGACCTTCGAACCCTTGCC: 9.01; AATAAGAGCTTTGCATAAGCCAGACATTCT: -1.07; TTTATTGTTGCTGATATAGAACACTTGTAC: 1.54.
Take ATGATCCTTGGCTGTGTGACTCACCTTTGC: the binding signal (log2 normalized intensity) is 3.25.
Next, ATGGATCATCACAATCACCTGTGAAGTGGT: -0.707; AGTTTTATGGCAGGGTCGGAATGTCTGGGC: 1.48; AGGGACTTTGTCCCACAGGAGAAGTGATCC: 1.54.
Consider ACATCTTGATTTAGCCCAGTGAGACCCATT, for which the binding signal (log2 normalized intensity) was found to be 1.38.
In the case of GCCACCCCCGTTAATTTCTAACCAATGCAG, the binding signal (log2 normalized intensity) was 0.623.
Next, ATGAAAAGTGGAATGCGCTTTCATGAGATG: -0.917; TTGTCAAGTGCCCGGATAAACTTCCAGCCA: -1.12; ACTGTAACCTTTGCCCCCCTGGGCTCAAGC: 5.81.
For TAGCCTTTCATCTTCTTAGCCTTTGAACCC, the binding signal (log2 normalized intensity) is 6.15.
Next, TCAAGCACATTCCAGAACCAAGATTTACAT: -0.853; ATCCAGCTGGGTATACTGACTAGGACAGAG: -0.958; TTTTATTTAACTTCTGGGGGCAAGGTACAC: 4.22.
Next, CTTCCCCCCTCCCTCCGCAACCTTTACTCC: 5.16; TCCCTCATCTGTCATTCCCTCACTCTAGAA: -1.09.
Next, CACTCCAGTGAGACAGAAGTAAAACAGGTA: -1.11.
As to GGACAATCATTGTGCAACCTGGACATTGGC, the binding signal (log2 normalized intensity) turned out to be 2.08.
For CATTGCAAGTCGTATACTATCTCAGGGCCT the value was 0.266; for TTGCCTTCCTGTTAGATAGAGGAGTCAAGC, -1.01; for CGAGAGCCGCCGCCGTGGGAGAGGCCGCCC, -1.03.
Next, CTACATAACAAACATTACTAACTGGACTTT: 6.17.
